Test results reported in PubChem BioAssay AID2675 (National Center for Advancing Translational Sciences (NCATS), 2010).
The whole screen tested about 280,000 compounds, of which about 100 (0.036%) were called active. This list was built around the results that the source calls inconclusive (neither active nor inactive); the mix of calls is not that of the screen. Calls follow the shape of the dose curve; as a rule, active = well fitted inhibition curve with a large enough effect in the signal ratio, with a control signal flat (not every such curve was filed as active); inconclusive = small, poorly fitted or top-dose-only effect, or effect the other way, or a change in a side signal; inactive = no such curve, though single readings can be large or run the other way; the % refers to the signal ratio. Potencies of inconclusive entries are doubtful fits and often do not repeat. A note “side channel” means that the fit belongs to a control or component signal, not to the main read-out.

Each compound was assayed against Muscleblind-like protein 1 (Homo sapiens) (UniProt Q9NR56) (assay: qHTS Assay for Inhibitors of MBNL1-poly(CUG) RNA binding). Details: TR-FRET MBNL1-His/biotin-(CUG)12 binding, 665/545 ratio; activity change, negative = inhibition: at 57.5 µM (top of the series).
Sequence of UniProt Q9NR56 (Q9NR56 whole entry, looked up): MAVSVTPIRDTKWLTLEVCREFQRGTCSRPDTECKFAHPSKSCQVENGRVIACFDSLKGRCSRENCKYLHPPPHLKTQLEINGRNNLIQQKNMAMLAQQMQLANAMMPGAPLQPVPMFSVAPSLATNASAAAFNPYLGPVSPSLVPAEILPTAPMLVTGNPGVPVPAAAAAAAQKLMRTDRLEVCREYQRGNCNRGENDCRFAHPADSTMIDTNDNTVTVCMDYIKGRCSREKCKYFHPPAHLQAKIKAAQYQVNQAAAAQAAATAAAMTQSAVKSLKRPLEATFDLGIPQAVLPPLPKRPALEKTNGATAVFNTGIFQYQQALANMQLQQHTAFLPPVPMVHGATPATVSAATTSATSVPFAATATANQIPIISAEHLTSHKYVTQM
Summary of the method: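 Compound titration spanned 92 nM–58 uM against the MBNL1-His/biotin-(CUG)12 complex. After 60 min at room temperature with 5 nM streptavidin-XL665 and 0.055 ng/ul terbium anti-His, ratiometric 665/545 nm emission (Ex 340 nm) normalized to controls.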
% is scaled to controls: 0 for no effect and ±100 for the full control effect; potency is read from the fitted curve at half-maximal effect; tags tell the direction and shape of the fitted curve or compound fluorescence and quenching.

SMILES | Potency | activity change, negative = inhibition
Cc1cc(/C=C(\C#N)c2nc3ccccc3[nH]2)c(C)n1C | inactive | –
O=C(Cn1ncc2c(=O)oc3ccccc3c21)NCCc1ccsc1 | inconclusive: 22.4 µM [quencher, side channel, partial curve, poor fit] | –
COc1ccc(NC(=O)C/C(C)=N/NC(=O)C2CCCCC2)c([N+](=O)[O-])c1 | inconclusive: 25.1 µM [quencher, side channel, partial curve] | –
COc1ccc(-c2nc(CS(=O)CC(=O)NCCCN3CCCC(C)C3)c(C)o2)cc1OC (configuration not stated) | inactive | –
COc1cc(/C=N/NC(=O)C(C)Nc2n[nH]c(=O)[nH]c2=O)cc(OC)c1O (configuration not stated) | – | inconclusive: 17.8% [phenotype inactive]
O=C(N/N=C/c1cccc([N+](=O)[O-])c1)c1ccncc1 | inconclusive: 14.1 µM [quencher, side channel, partial curve] | –
O=C(NC1(O)C(=O)c2ccccc2C1=O)c1c(Cl)cccc1Cl | inconclusive: 15.8 µM [quencher, side channel, partial curve] | –
O=C(c1ccccc1)N1CC(COc2ccccc2)OC(c2cccnc2)O1 (configuration not stated) | inconclusive: 15.8 µM [quencher, side channel, partial curve] | –
Cc1cc(C)c(NC(=O)COC(=O)c2cccc3c2C(=O)c2ccccc2C3=O)c(C)c1 | inconclusive: 1.58 µM [quencher, side channel, full curve, poor fit] | –
CCOC(=O)CCCNS(=O)(=O)c1c(C)ccc2nsnc12 | inconclusive: 3.98 µM [quencher, side channel, full curve] | –
Cc1cc(C(=O)CSc2nnc(N)s2)c(C)n1Cc1cccs1 | inactive | –
COc1cc2c(c(OC)c1OC)-c1ccc(N(C)CC(OC)OC)c(=O)cc1[C@@H](NC(C)=O)CC2 | inconclusive: 25.1 µM [quencher, side channel, partial curve] | –
COc1ccc(C2/C(=C(/O)c3ccccc3)C(=O)C(=O)N2c2ncccn2)cc1OC (configuration not stated) | inconclusive: 39.8 µM [quencher, side channel, single point] | –
O=C1NN(c2ccc(Cl)cc2)C(=O)/C1=C\c1ccc(-c2cccc(C(=O)O)c2)o1 | inactive | –
Cc1cccc(C)c1OCCCCCNCCO | inconclusive: 10 µM [quencher, side channel, partial curve] | –
CC(=O)c1cccc(NC(=S)NC(=O)c2cncc(Br)c2)c1 | inactive | –
O=C(O)c1ccc(N/N=C/c2cc3cc4c(cc3nc2Cl)OCCO4)cc1 | inconclusive: 17.8 µM [quencher, single point] | –
Cc1cccc(C(C)C)c1NC(=O)COC(=O)Cc1ccsc1 | inconclusive: 0.631 µM [fluorescent, side channel, single point] | –
C=CCn1c(SCC(=O)c2[nH]c(C)c(C(=O)OCC)c2C)nc2scc(-c3ccc(OC)c(OC)c3)c2c1=O | inconclusive: 0.112 µM [fluorescent, side channel, partial curve, poor fit] | –

SMILES | Potency | activity change, negative = inhibition
Nc1nc(-c2ccccc2)[nH]c(=O)c1N=O | inconclusive: 11.2 µM [quencher, partial curve] | –
O=C(NCc1nc2ccccc2[nH]1)C1=C[C@H](c2ccccc2)C[C@H](OCc2ccc(CO)cc2)O1 | inactive | –
CCNC(=S)Nc1cccc(S(=O)(=O)NC2=NCCC2)c1 | inconclusive: 200 µM [inhibitor, partial curve] | –
COc1ccc(S(=O)(=O)NCCCN2CCCC2=O)cc1OC | inconclusive: 39.8 µM [fluorescent, side channel, single point] | –
O=C(OCc1nc2ccccc2[n+]([O-])c1C(=O)c1ccccc1)c1cccnc1 | inconclusive: 20 µM [quencher, side channel, partial curve] | –
O=c1c2cc([N+](=O)[O-])ccc2nc2n1CCCC2 | inconclusive: 0.562 µM [quencher, side channel, full curve, poor fit] | –
C=CCNc1nc2ccccc2nc1NS(=O)(=O)c1ccc(OC)cc1 | inactive | –
CN(C)S(=O)(=O)c1ccc2c(c1)Cc1cc(S(=O)(=O)N(C)C)ccc1-2 | inconclusive: 39.8 µM [quencher, side channel, single point] | –
O=c1c2c3c(sc2n2cnnc2n1Cc1ccccc1)CN(Cc1ccccc1)CC3 | inconclusive: 39.8 µM [quencher, single point] | –
CC1(C)CC(Nc2ccc(C(F)(F)F)cc2[N+](=O)[O-])CC(C)(C)N1 | inconclusive: 15.8 µM [quencher, side channel, partial curve] | –
COCCN1CN(S(=O)(=O)c2ccccc2)c2nc3ccccc3nc21 | inconclusive: 15.8 µM [quencher, side channel, partial curve] | –
CCc1cccc(NC(=O)CCCSc2nc3ccccc3[nH]2)c1 | – | inconclusive: -22.5% [phenotype inactive]
CCCN1C(=O)c2ccc(C(=O)Nc3nccs3)cc2C1=O | inconclusive: 8.91 µM [quencher, side channel, partial curve] | –
O=C(CCc1nc2ccccc2[nH]1)N1CCc2ccccc2C1 | inconclusive: 100 µM [inhibitor, partial curve] | –
O=c1[nH]c(=O)c2nnc(N/N=C\c3ccc(O)cc3)nc2[nH]1 | inconclusive: 10 µM [quencher, side channel, partial curve] | –
C=CCN1C(=O)c2ccc(C(=O)N(C)CC(=O)Nc3ccccc3Br)cc2C1=O | inconclusive: 20 µM [quencher, side channel, partial curve] | –
O=C(CNC(=O)c1cccs1)OCC(=O)c1ccc2ccccc2c1 | inconclusive: 31.6 µM [quencher, side channel, single point] | –
O=C(Cc1ccccc1)Nc1cccc(C(=O)N/N=C/c2ccco2)c1 | inconclusive: 15.8 µM [quencher, side channel, partial curve, poor fit] | –
